In PubChem BioAssay AID1645887 (National Center for Advancing Translational Sciences (NCATS), 2021):
Where “and” joins values, the source holds several entries; their conditions need not be identical. Identical values can stand only once. Screen size: about 16,000 compounds; about 40 (0.2%) were called active. About 1% were inconclusive and are not listed. Calls follow the shape of the dose curve; as a rule, active = well fitted activation curve with a large enough effect; inconclusive = small, poorly fitted or top-dose-only effect, or another doubt; inactive = no such curve, though single readings can be large or run the other way. The list shows a part of the results.

target: Rap guanine nucleotide exchange factor 4 (Homo sapiens) (UniProt Q8WZA2); assay: Validation qHTS for agonist of cAMP-regulated guanine nucleotide exchange factor 4 (EPAC2); conditions: EPAC2 Rap1B BODIPY-GDP exchange, fluorescence; activation: active compounds read high;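 as to activation: exchange makes BODIPY-GDP fluorescence drop when released from Rap1B; series mostly up to about 150 µM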
Chain of UniProt Q8WZA2 (Q8WZA2 whole entry, looked up): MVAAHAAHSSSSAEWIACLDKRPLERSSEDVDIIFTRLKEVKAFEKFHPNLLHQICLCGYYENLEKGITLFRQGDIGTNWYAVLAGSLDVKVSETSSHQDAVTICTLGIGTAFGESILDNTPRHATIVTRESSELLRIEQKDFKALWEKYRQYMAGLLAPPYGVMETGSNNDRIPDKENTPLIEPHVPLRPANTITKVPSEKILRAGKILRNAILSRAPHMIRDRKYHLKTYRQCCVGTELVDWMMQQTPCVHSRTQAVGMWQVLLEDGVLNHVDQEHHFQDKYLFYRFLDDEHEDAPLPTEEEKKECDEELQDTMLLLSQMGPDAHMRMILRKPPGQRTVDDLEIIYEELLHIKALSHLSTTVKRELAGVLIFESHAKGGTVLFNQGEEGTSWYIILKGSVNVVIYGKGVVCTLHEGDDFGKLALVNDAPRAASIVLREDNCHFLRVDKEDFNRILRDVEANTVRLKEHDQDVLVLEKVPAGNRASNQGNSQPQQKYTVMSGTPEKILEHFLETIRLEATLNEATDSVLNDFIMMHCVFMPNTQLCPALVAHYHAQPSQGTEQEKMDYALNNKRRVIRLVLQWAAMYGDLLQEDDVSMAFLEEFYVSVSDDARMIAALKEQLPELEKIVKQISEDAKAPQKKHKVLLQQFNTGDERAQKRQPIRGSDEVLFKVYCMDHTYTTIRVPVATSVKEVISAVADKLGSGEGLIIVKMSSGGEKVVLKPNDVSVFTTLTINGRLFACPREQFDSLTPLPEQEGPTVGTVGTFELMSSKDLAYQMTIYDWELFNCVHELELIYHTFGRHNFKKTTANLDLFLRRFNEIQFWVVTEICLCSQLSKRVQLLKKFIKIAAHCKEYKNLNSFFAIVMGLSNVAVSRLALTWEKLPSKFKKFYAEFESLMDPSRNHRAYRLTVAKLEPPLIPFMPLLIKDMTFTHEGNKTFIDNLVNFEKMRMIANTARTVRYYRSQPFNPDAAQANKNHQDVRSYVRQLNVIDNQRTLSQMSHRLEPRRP
In short: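 Signal normalized against 6.5 mM cAMP as agonist control. Mix of EPAC2 (100 nM), RAP1B-BODIPY-GDP (250 nM) and GDP (50 uM) was read kinetically at 480/540 nm, every 5 min over 30 min, after 5 min room-temperature incubation with compound.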
% is scaled to controls: 0 for no effect and ±100 for the full control effect; potency is read from the fitted curve at half-maximal effect.

SMILES	activation	Potency
O=C(c1cnccn1)N1CCC2(CC1)CCN(C(c1ccccc1)c1ccccc1)CC2	inactive: -22.8%	–
CCCCCCCCCC[n+]1ccc(/C=C/c2c[nH]c3ccccc23)cc1	inactive: 30.5%	–
C#C[C@]1(OC(C)=O)CC[C@H]2[C@@H]3CCC4=C[C@@H](OC(C)=O)CC[C@@H]4[C@H]3CC[C@@]21C	inactive: -23.5% and inactive: -16.8%	–
COC(=O)c1c(Cl)c(Cl)c(C(=O)OC)c(Cl)c1Cl	inactive: 3.31% and inactive: -3.94%	–
CN(C)Cc1ccccc1-c1nc(NCc2ccccc2)c2ccccc2n1	inactive: -3.89%	–
Cc1nc2cnc(N3CCOCC3)nc2n(C2CC2)c1=O	inactive: 4.9%	–
CCOC(=O)/C=C/c1ccc2c(c1)S(=O)(=O)N(C1CCCC1)[C@H]2CC(=O)OCC	inactive: -18.5%	–
Cc1noc(C)c1-c1nccc(NCc2cccnc2)n1	inactive: -10.2%	–
Cc1ccc2nccc(/C=C/c3ccc(N(C)C)cc3)c2c1	inactive: -79.4%	–
O=C(NCc1nnc2n1CCN(Cc1cccc(C(F)(F)F)c1)CC2)c1ccncc1	inactive: -10.9%	–
COc1ccc([C@@H]2CNC(=O)C2)cc1OC1CCCC1	inactive: -30.4% and inactive: -17.2% and inactive: -16.5%	–
CC(C)NC(=O)N1CCC2(CC1)CCN(S(C)(=O)=O)CC2	inactive: -0.712%	–
Cc1c(C(=O)NCCCc2ccncc2)cnn1-c1nccc(-c2ccccc2F)n1	inactive: -21.1%	–
Cc1ccccn1	inactive: 8.79%	–
NS(=O)(=O)c1ccc(C(=O)O)cc1	inactive: -20.1%	–
Cc1noc(C)c1-c1cncnc1NCCN1CCOCC1	inactive: -5.64%	–
CCCCCCCCCCCCC/C=C/[C@@H](O)[C@H](CO)N(C)C	inactive: 13.1%	–
Cc1ccc(S(=O)(=O)/C=C\C#N)cc1	inactive: -19.9%	–
Nc1c(S(=O)(=O)O)cc(Nc2ccc(Nc3nc(Cl)nc(Nc4ccc(S(=O)(=O)O)cc4)n3)c(S(=O)(=O)O)c2)c2c1C(=O)c1ccccc1C2=O	inactive: -18.2%	–
CCN1C(=O)CC(CC(=O)N2CCC(c3nc4ccc(F)cc4[nH]3)CC2)(c2ccccc2C)C1=O (stereo not given)	inactive: -10.9%	–
COc1ccc(Oc2ncc3nc(-c4ccc(OC)cc4)c(=O)n(Cc4cccs4)c3n2)cc1	inactive: -13.9%	–
CS(=O)(=O)N1CCC[C@@]2(CCN(C(c3ccccc3)c3ccccc3)C2)C1	inactive: -19.2%	–

SMILES	activation	Potency
COc1ccc(-c2nc3cnc(OC)nc3n(CCC#N)c2=O)cc1	inactive: -3.07%	–
C/C=C(\C)C(=O)O[C@H]1C[C@@]2(C)CCC(C(C)C)C2(O)CC[C@@]1(C)O (stereo not given in full)	inactive: -1.6%	–
CNc1cc(NS(=O)(=O)c2ccc(N)cc2)nc(NC)n1	inactive: -9.72%	–
FC(F)(F)c1ccccc1-c1cc(N2CCNCC2)ncn1	inactive: -10.7%	–
CC(=O)OCC1OC(n2c(Br)nc3c(=O)[nH]c(N)nc32)C(OC(C)=O)C1OC(C)=O (stereo not given)	inactive: -6.82%	–
CC(C)(C)CC(=O)OCC(=O)[C@@]12OC(C)(C)O[C@@H]1C[C@H]1[C@@H]3CCC4=CC(=O)C=C[C@]4(C)[C@@]3(F)[C@@H](O)C[C@@]12C	inactive: -6.08%	–
Nc1cc(N)cc(N)c1	–	active: 50.1 µM
CCOc1ccccc1C(N)=O	inactive: 6.07%	–
Cc1cc2c(c(-c3ccc(Cl)cc3)c1)OC(CNC(=O)Cc1c(C)noc1C)C2 (stereo not given)	inactive: -13%	–
CSc1nnc(CCNC(=O)/C=C/c2cccc(F)c2)n1-c1ccc(F)cc1	inactive: -9.1%	–
CN(C)c1ncc2nc(-c3cc(F)cc(F)c3)c(=O)n(CCc3ccccc3)c2n1	inactive: 8.28%	–
COc1ccccc1-c1cncnc1N1CCN(C)CC1	inactive: 2.27%	–
CCN(CC)CCn1c(=O)c(Cc2ccc(OC)cc2)nc2ccccc21	inactive: -34.1%	–
COc1cc(OC)c2nc(-c3cc4c(c(OC)c3)OCCN(Cc3cn(C)nc3C)C4)cc(C)c2c1	inactive: -5.56%	–
CCC1CN(CCNC(=O)c2ccc3c(c2)OCCO3)Cc2cc(OC)ccc2O1 (stereo not given)	inactive: -3.54%	–
O=C(c1csnn1)N1CCC[C@@]2(CCN(c3ccccn3)C2)C1	inactive: -17.6%	–
O=C(Oc1ccccc1)N1CCC2(CC1)CN(c1ccccn1)C2	inactive: 6.1%	–
CC(=O)c1ccc2oc3ccccc3c(=O)c2c1	inactive: -18.2%	–
O=C1CC[C@@H](CN(Cc2cccnc2)C2CCN(c3ccc(NC(=O)c4cnccn4)cc3)CC2)N1	inactive: -4.13%	–
CCNc1ncc2nc(-c3cccs3)c(=O)n(Cc3cccc(OC)c3)c2n1	inactive: -3.24%	–
Cc1cccc(CNc2ccnc(-c3ccoc3)n2)c1	inactive: -30.4%	–
Cc1ncc2c(c1CNC(=O)c1cncs1)CCN(C(=O)c1cccc(-c3cccc(F)c3)c1)C2	inactive: -15.7%	–

SMILES	activation	Potency
OCl	inactive: 12.4%	–
CN(C)CCCCSC(=N)N	inactive: -11.1% and inactive: 7.5%	–
COC(=O)c1ccc(-c2cccc3c2OC(CNC(=O)/C=C/c2ccc(OC)c(OC)c2)C3)nc1 (stereo not given)	inactive: 3.94%	–
COc1cc(C=O)ccc1O	inactive: -4.55% and inactive: 6.75%	–
O=c1c(-c2ccccc2)nc2cnc(N3CCNCC3)nc2n1C1CC1	inactive: -5.11%	–
C#C[C@]1(O)CC[C@H]2[C@@H]3CCc4cc(OC)ccc4[C@H]3CC[C@@]21C	inactive: -7.53%	–
COc1cc(C2c3cc4c(cc3C(OC3OC5COC(C)O[C@@H]5C(O)C3O)C3COC(=O)C23)OCO4)cc(OC)c1O (stereo not given in full)	inactive: 14.6%	–
CC(N)(Cc1ccc(O)cc1)C(=O)O (stereo not given)	inactive: -6.55%	–
CC(C)NCC(O)c1ccc(NS(C)(=O)=O)cc1 (stereo not given)	inactive: 8.35% and inactive: 5.75% and inactive: -23%	–
O=C(Oc1ccccc1)N1CCC2(CC1)CCN(c1ccncc1)CC2	inactive: -23.8%	–
CC1=C(C)C(=O)C(CCCCC#CCCCC#CCO)=C(C)C1=O	inactive: -22.4% and inactive: -7.65%	–
O=c1c(-c2ccc(F)cc2)nc2cnc(Nc3ccccc3)nc2n1C1CC1	inactive: -3.29%	–
COC(=O)[C@H](C)NS(=O)(=O)C1CC1	inactive: -14%	–
COc1ccc(NC(=O)N2CCC3(CC2)CCN(C(=O)c2ccco2)CC3)cc1	inactive: -8.88%	–
CN(CCOc1ccc(NS(C)(=O)=O)cc1)CCc1ccc(NS(C)(=O)=O)cc1	inactive: -7.59%	–
COc1cc(=O)n2c(c1C(=O)NC(C)c1ccco1)CCN(C(=O)c1ccnc(Cl)c1)CC2 (stereo not given)	inactive: -22.1%	–
COCC(=O)N1CCC2(CCN(Cc3nccs3)CC2)CC1	inactive: -10.2%	–
Cc1c(N)nc(C(CC(N)=O)NCC(N)C(N)=O)nc1C(=O)NC(C(=O)NC(C)C(O)C(C)C(=O)NC(C(=O)NCCc1nc(-c2nc(C(=O)NCCCN[C@@H](C)c3ccccc3)cs2)cs1)C(C)O)C(O[C@@H]1O[C@@H](CO)[C@@H](O)[C@H](O)[C@@H]1O[C@H]1O[C@H](CO)[C@@H](O)[C@H](OC(N)=O)[C@@H]1O)c1cnc[nH]1 (stereo not given in full)	inactive: -6.84%	–
Cc1noc(C)c1C(=O)N1CCC2(CC1)CN(c1ccccc1)C2	inactive: 6.53%	–
COc1ccc(/C=C/C(=O)c2ccc(C)s2)cc1	inactive: 3.58%	–
O=C(O)[C@@H]1C[C@@H](C(=O)O)N1	inactive: 4.99% and inactive: 4.66% and inactive: -6.1%	–
Fc1ccc(Nc2ccnc(-c3ccccc3C(F)(F)F)n2)cc1	inactive: -20.1%	–

SMILES	activation	Potency
CS(=O)(=O)N1CCC2(CC1)CN(C(=O)Nc1ccccc1)C2	inactive: -0.788%	–
COc1ccccc1CCn1c(=O)c(-c2ccc(F)c(F)c2)nc2cncnc21	inactive: 1.69%	–
OCC1OC(Oc2cccc3cccnc23)C(O)C(O)C1O (stereo not given)	inactive: 5.84%	–
COc1ccccc1CNc1nc(-c2c(C)noc2C)nc2ccccc12	inactive: 5.53%	–
CC(C)=CCn1cnc2c1c(=O)n(C)c(=O)n2C	inactive: -1.98%	–
COc1ccccc1-c1nc(NCc2ccccc2)c2ccccc2n1	inactive: -17.3%	–
CN(C)CCCSc1ccccc1NC(=O)/C=C\c1ccccc1	inactive: -24.6%	–
Cc1ncc2c(c1CNS(=O)(=O)N(C)C)CCN(C(=O)/C=C/c1ccccc1F)C2	inactive: -1.62%	–
Cc1cccc(CNc2nc(-c3ccccc3CN(C)C)nc3ccccc23)c1	inactive: -18.7%	–
O=S1(=O)CCOC[C@H](CC2CCCCC2)N1Cc1cccc(F)c1	inactive: -21%	–
O=C(O)P(=O)(O)O	inactive: -7.99%	–
COc1ccc(-n2c(=O)cnc3cnc(Oc4cccc(Cl)c4)nc32)cc1	inactive: -3.9%	–
CC(C)C(NC(=O)c1ccccn1)c1nnc2n1CCN(Cc1ccc3ccccc3c1)CC2 (stereo not given)	inactive: -12.6%	–
CC(C)c1c(C(=O)NCC(C)(C)N2CCOCC2)cnn1-c1nccc(-c2cccs2)n1	inactive: 0.997%	–
CCCN(C/C=C\I)[C@@H]1CCc2cccc(O)c2C1	inactive: -9.81%	–
COC(=O)c1ccc2nc3c(cc2c1)[C@@H]1CCN2C(=O)CCC[C@H](C3)[C@H]12	inactive: -19.5%	–
Cc1nc2cnc(N3CCNCC3)nc2n(Cc2cccs2)c1=O	inactive: -14.3%	–
O=C(C(=O)N1CCOc2ccc(CN3CCN(Cc4ccccn4)CC3)cc2C1)c1ccccc1	inactive: 5.63%	–
CCCCCCCCCCCCCCCC[N+](C)(C)CCN(Cc1ccc(OC)cc1)c1ncccn1	inactive: -15.4%	–
